# Reference: the supplement of paper PMC8728848
# The other results are listed elsewhere or left out.
# Tests used:
# Experiment in all cases: glycan array binding signal (z-score within array); higher = stronger binding
# Conditions in all cases: glycan notation: IUPAC condensed, linker removed
# [1] = target: Glc(b1-6)Glc
# Method in brief: (§1)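 The Consortium for Functional Glycomics database supplied 3228 glycan arrays, of which those lacking an available protein sequence were dropped. The binding signal, a within-array Z-score, was averaged across arrays of the same protein sequence and across linkers. Negative scores can be read as non-binding.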
# [2] = target: GlcA(b1-3)Gal
# Method in brief: as §1
# [3] = target: GlcA(b1-3)GlcNAc
# Method in brief: as §1
# [4] = target: GlcA(b1-6)Gal
# Method in brief: as §1
# [5] = target: GlcA3S(b1-3)Gal(b1-4)GlcNAc(b1-2)Man
# Method in brief: as §1
# [6] = target: GlcA3S(b1-3)Gal(b1-4)GlcNAc(b1-3)Gal(b1-4)Glc
# Method in brief: as §1
# [7] = target: GlcNAc(a1-3)Gal(b1-4)GlcNAc
# Method in brief: as §1
# [8] = target: GlcNAc(a1-4)Gal(b1-3)GlcNAc
# Method in brief: as §1
# [9] = target: GlcNAc(a1-4)Gal(b1-4)GalNAc
# Method in brief: as §1
# [10] = target: GlcNAc(a1-4)Gal(b1-4)GlcNAc
# Method in brief: as §1
# [11] = target: GlcNAc(a1-4)Gal(b1-4)GlcNAc(b1-3)Gal(b1-4)Glc
# Method in brief: as §1
# [12] = target: GlcNAc(a1-4)Gal(b1-4)GlcNAc(b1-3)Gal(b1-4)GlcNAc
# Method in brief: as §1
# [13] = target: GlcNAc(a1-4)Gal(b1-4)GlcNAc(b1-3)Gal(b1-4)GlcNAc(b1-3)Gal(b1-4)GlcNAc
# Method in brief: as §1
# [14] = target: GlcNAc(a1-4)Gal(b1-4)GlcNAc(b1-3)Gal(b1-4)[Fuc(a1-3)]GlcNAc(b1-3)Gal(b1-4)[Fuc(a1-3)]GlcNAc
# Method in brief: as §1
# [15] = target: GlcNAc(a1-6)Gal(b1-4)GlcNAc
# Method in brief: as §1
# [16] = target: GlcNAc(b1-2)Gal(b1-3)GalNAc
# Method in brief: as §1
# [17] = target: GlcNAc(b1-2)Man(a1-3)[GlcNAc(b1-2)Man(a1-6)]Man(b1-4)GlcNAc(b1-4)GlcNAc
# Method in brief: as §1
# [18] = target: GlcNAc(b1-2)Man(a1-3)[GlcNAc(b1-2)Man(a1-6)]Man(b1-4)GlcNAc(b1-4)[Fuc(a1-6)]GlcNAc
# Method in brief: as §1
# [19] = target: GlcNAc(b1-2)Man(a1-3)[GlcNAc(b1-4)][GlcNAc(b1-2)Man(a1-6)]Man(b1-4)GlcNAc(b1-4)GlcNAc
# Method in brief: as §1
# [20] = target: GlcNAc(b1-2)Man(a1-3)[GlcNAc(b1-4)][GlcNAc(b1-2)Man(a1-6)]Man(b1-4)GlcNAc(b1-4)[Fuc(a1-6)]GlcNAc
# Method in brief: as §1
# [21] = target: GlcNAc(b1-2)[GlcNAc(b1-4)]Man(a1-3)[GlcNAc(b1-2)Man(a1-6)]Man(b1-4)GlcNAc(b1-4)GlcNAc
# Method in brief: as §1
# [22] = target: GlcNAc(b1-2)[GlcNAc(b1-4)]Man(a1-3)[GlcNAc(b1-4)][GlcNAc(b1-2)Man(a1-6)]Man(b1-4)GlcNAc(b1-4)GlcNAc
# Method in brief: as §1
# [23] = target: GlcNAc(b1-2)[GlcNAc(b1-4)]Man(a1-3)[GlcNAc(b1-4)][GlcNAc(b1-2)[GlcNAc(b1-6)]Man(a1-6)]Man(b1-4)GlcNAc(b1-4)GlcNAc
# Method in brief: as §1
# [24] = target: GlcNAc(b1-2)[GlcNAc(b1-4)]Man(a1-3)[GlcNAc(b1-4)][GlcNAc(b1-2)[GlcNAc(b1-6)]Man(a1-6)]Man(b1-4)GlcNAc(b1-4)[Fuc(a1-6)]GlcNAc
# Method in brief: as §1
# [25] = target: GlcNAc(b1-2)[GlcNAc(b1-6)]Man(a1-6)[GlcNAc(b1-2)Man(a1-3)]Man(b1-4)GlcNAc(b1-4)GlcNAc
# Method in brief: as §1
# [26] = target: GlcNAc(b1-2)[GlcNAc(b1-6)]Man(a1-6)[GlcNAc(b1-2)Man(a1-3)]Man(b1-4)GlcNAc(b1-4)[Fuc(a1-6)]GlcNAc
# Method in brief: as §1
# [27] = target: GlcNAc(b1-2)[GlcNAc(b1-6)]Man(a1-6)[GlcNAc(b1-4)][GlcNAc(b1-2)Man(a1-3)]Man(b1-4)GlcNAc(b1-4)GlcNAc
# Method in brief: as §1
# [28] = target: GlcNAc(b1-3)Fuc
# Method in brief: as §1
# [29] = target: GlcNAc(b1-3)Gal
# Method in brief: as §1
# [30] = target: GlcNAc(b1-3)Gal(b1-3)GalNAc
# Method in brief: as §1
# [31] = target: GlcNAc(b1-3)Gal(b1-4)Glc
# Method in brief: as §1
# [32] = target: GlcNAc(b1-3)Gal(b1-4)GlcNAc
# Method in brief: as §1
# [33] = target: GlcNAc(b1-3)Gal(b1-4)GlcNAc(b1-2)Man(a1-3)[GlcNAc(b1-3)Gal(b1-4)GlcNAc(b1-2)Man(a1-6)]Man(b1-4)GlcNAc(b1-4)GlcNAc
# Method in brief: as §1
# [34] = target: GlcNAc(b1-3)Gal(b1-4)GlcNAc(b1-2)Man(a1-3)[GlcNAc(b1-3)Gal(b1-4)GlcNAc(b1-2)Man(a1-6)]Man(b1-4)GlcNAc(b1-4)[Fuc(a1-6)]GlcNAc
# Method in brief: as §1
# [35] = target: GlcNAc(b1-3)Gal(b1-4)GlcNAc(b1-2)[GlcNAc(b1-3)Gal(b1-4)GlcNAc(b1-6)]Man(a1-6)[GlcNAc(b1-3)Gal(b1-4)GlcNAc(b1-2)Man(a1-3)]Man(b1-4)GlcNAc(b1-4)GlcNAc
# Method in brief: as §1
# [36] = target: GlcNAc(b1-3)Gal(b1-4)GlcNAc(b1-3)Gal(b1-4)GlcNAc
# Method in brief: as §1
# [37] = target: GlcNAc(b1-3)Gal(b1-4)GlcNAc(b1-3)Gal(b1-4)GlcNAc(b1-2)Man(a1-3)[GlcNAc(b1-3)Gal(b1-4)GlcNAc(b1-3)Gal(b1-4)GlcNAc(b1-2)Man(a1-6)]Man(b1-4)GlcNAc(b1-4)GlcNAc
# Method in brief: as §1
# [38] = target: GlcNAc(b1-3)Gal(b1-4)GlcNAc(b1-3)Gal(b1-4)GlcNAc(b1-2)Man(a1-3)[GlcNAc(b1-3)Gal(b1-4)GlcNAc(b1-3)Gal(b1-4)GlcNAc(b1-2)Man(a1-6)]Man(b1-4)GlcNAc(b1-4)[Fuc(a1-6)]GlcNAc
# Method in brief: as §1
# [39] = target: GlcNAc(b1-3)Gal(b1-4)GlcNAc(b1-3)Gal(b1-4)GlcNAc(b1-2)[GlcNAc(b1-3)Gal(b1-4)GlcNAc(b1-3)Gal(b1-4)GlcNAc(b1-6)]Man(a1-6)[GlcNAc(b1-3)Gal(b1-4)GlcNAc(b1-3)Gal(b1-4)GlcNAc(b1-2)Man(a1-3)]Man(b1-4)GlcNAc(b1-4)[Fuc(a1-6)]GlcNAc
# Method in brief: as §1
# [40] = target: GlcNAc(b1-3)Gal(b1-4)GlcNAc(b1-3)Gal(b1-4)GlcNAc(b1-3)Gal(b1-4)GlcNAc(b1-2)Man(a1-3)[GlcNAc(b1-3)Gal(b1-4)GlcNAc(b1-3)Gal(b1-4)GlcNAc(b1-3)Gal(b1-4)GlcNAc(b1-2)Man(a1-6)]Man(b1-4)GlcNAc(b1-4)GlcNAc
# Method in brief: as §1
# [41] = target: GlcNAc(b1-3)Gal(b1-4)GlcNAc(b1-3)Gal(b1-4)GlcNAc(b1-3)Gal(b1-4)GlcNAc(b1-2)Man(a1-3)[GlcNAc(b1-3)Gal(b1-4)GlcNAc(b1-3)Gal(b1-4)GlcNAc(b1-3)Gal(b1-4)GlcNAc(b1-2)Man(a1-6)]Man(b1-4)GlcNAc(b1-4)[Fuc(a1-6)]GlcNAc
# Method in brief: as §1
# [42] = target: GlcNAc(b1-3)Gal(b1-4)GlcNAc(b1-3)Gal(b1-4)GlcNAc(b1-3)Gal(b1-4)GlcNAc(b1-2)[GlcNAc(b1-3)Gal(b1-4)GlcNAc(b1-3)Gal(b1-4)GlcNAc(b1-3)Gal(b1-4)GlcNAc(b1-6)]Man(a1-6)[GlcNAc(b1-3)Gal(b1-4)GlcNAc(b1-3)Gal(b1-4)GlcNAc(b1-3)Gal(b1-4)GlcNAc(b1-2)Man(a1-3)]Man(b1-4)GlcNAc(b1-4)[Fuc(a1-6)]GlcNAc
# Method in brief: as §1
# [43] = target: GlcNAc(b1-3)Gal(b1-4)GlcNAc(b1-3)Gal(b1-4)GlcNAc(b1-3)Gal(b1-4)GlcNAc(b1-3)Gal(b1-4)GlcNAc(b1-2)Man(a1-3)[GlcNAc(b1-3)Gal(b1-4)GlcNAc(b1-3)Gal(b1-4)GlcNAc(b1-3)Gal(b1-4)GlcNAc(b1-3)Gal(b1-4)GlcNAc(b1-2)Man(a1-6)]Man(b1-4)GlcNAc(b1-4)GlcNAc
# Method in brief: as §1
# [44] = target: GlcNAc(b1-3)Gal(b1-4)GlcNAc(b1-3)Gal(b1-4)GlcNAc(b1-3)Gal(b1-4)GlcNAc(b1-3)Gal(b1-4)GlcNAc(b1-2)Man(a1-3)[GlcNAc(b1-3)Gal(b1-4)GlcNAc(b1-3)Gal(b1-4)GlcNAc(b1-3)Gal(b1-4)GlcNAc(b1-3)Gal(b1-4)GlcNAc(b1-2)Man(a1-6)]Man(b1-4)GlcNAc(b1-4)[Fuc(a1-6)]GlcNAc
# Method in brief: as §1
# [45] = target: GlcNAc(b1-3)Gal(b1-4)GlcNAc(b1-3)Gal(b1-4)GlcNAc(b1-3)Gal(b1-4)GlcNAc(b1-3)Gal(b1-4)GlcNAc(b1-2)[GlcNAc(b1-3)Gal(b1-4)GlcNAc(b1-3)Gal(b1-4)GlcNAc(b1-3)Gal(b1-4)GlcNAc(b1-3)Gal(b1-4)GlcNAc(b1-6)]Man(a1-6)[GlcNAc(b1-3)Gal(b1-4)GlcNAc(b1-3)Gal(b1-4)GlcNAc(b1-3)Gal(b1-4)GlcNAc(b1-3)Gal(b1-4)GlcNAc(b1-2)Man(a1-3)]Man(b1-4)GlcNAc(b1-4)[Fuc(a1-6)]GlcNAc
# Method in brief: as §1
binder,measurement,setting,value
PX9961J-bvu-499-24-499 (Bacteroides vulgatus) (protein) LNTDPSTAVPSDDAIKNIDDAQVALNGIYRLASAHSYYGDNYLYYADCRGEDVQARINKGAGRRVSPYYFFDVTADDNFNITLVWNQPYKVIHQANSLIEKLDAGNAGNARPEEVARIKSEALAMRGLALFDLTRLFGMPYTLDNGASLGVPIEIQTTLEDHAPERNTVAQCYEQVLKDLNDALGGLTKEKHDAYMNYWSVKALLSRVYLYMNDNENALKCAEEVINDNGGIYRLFTHDEYPSVWGKDFNSESLFEFYFTMSEPSGGSGGEGAPMVYADNVKDWNNLILTKAYLDLLNEDPEDVRHVFPHLPENAVADTLPVAAKGQPKYLIKYPGKSGSVTDAVSTVNPQDNDLCILRLSEVYLNAAEAAFKIGNTEKALTYLNAIVTRANPAKSVTSADLSLERILKERRKELVGEGHAFFDYMRNGKSVDRSGGWHLTMPEDARVIAPSDPRVALPIPQTEIDANPNIVQNPR,glycan array binding signal (z-score),[1],-0.125
same,glycan array binding signal (z-score),[2],0.262
same,glycan array binding signal (z-score),[3],-0.101
same,glycan array binding signal (z-score),[4],0.034
same,glycan array binding signal (z-score),[5],-0.376
same,glycan array binding signal (z-score),[6],-0.707
same,glycan array binding signal (z-score),[7],0.074
same,glycan array binding signal (z-score),[8],-0.209
same,glycan array binding signal (z-score),[9],0.368
same,glycan array binding signal (z-score),[10],-0.235
same,glycan array binding signal (z-score),[11],0.01
same,glycan array binding signal (z-score),[12],-0.271
same,glycan array binding signal (z-score),[13],-0.176
same,glycan array binding signal (z-score),[14],0.182
same,glycan array binding signal (z-score),[15],-0.482
same,glycan array binding signal (z-score),[16],-0.563
same,glycan array binding signal (z-score),[17],-0.332
same,glycan array binding signal (z-score),[18],0.034
same,glycan array binding signal (z-score),[19],-0.362
same,glycan array binding signal (z-score),[20],-0.709
same,glycan array binding signal (z-score),[21],-0.361
same,glycan array binding signal (z-score),[22],-0.608
same,glycan array binding signal (z-score),[23],-0.106
same,glycan array binding signal (z-score),[24],-0.831
same,glycan array binding signal (z-score),[25],0.484
same,glycan array binding signal (z-score),[26],-0.048
same,glycan array binding signal (z-score),[27],-0.381
same,glycan array binding signal (z-score),[28],0.038
same,glycan array binding signal (z-score),[29],-0.109
same,glycan array binding signal (z-score),[30],-0.149
same,glycan array binding signal (z-score),[31],-0.492
same,glycan array binding signal (z-score),[32],-0.048
same,glycan array binding signal (z-score),[33],-0.096
same,glycan array binding signal (z-score),[34],-0.212
same,glycan array binding signal (z-score),[35],0.828
same,glycan array binding signal (z-score),[36],-0.674
same,glycan array binding signal (z-score),[37],0.336
same,glycan array binding signal (z-score),[38],0.659
same,glycan array binding signal (z-score),[39],0.146
same,glycan array binding signal (z-score),[40],0.01
same,glycan array binding signal (z-score),[41],0.511
same,glycan array binding signal (z-score),[42],0.791
same,glycan array binding signal (z-score),[43],0.349
same,glycan array binding signal (z-score),[44],2.84
same,glycan array binding signal (z-score),[45],-0.38
